Source: the supplement of paper PMC9446081
About 220 (0.56%) of roughly 39,000 compounds showed activity. The list shows a part of the results.

Test system: Escherichia coli K-12 BW25113
Assay: relative growth (OD600 normalised to plate interquartile mean) (fraction); higher = less growth inhibition, active = 0.2 or less
Details: 50 µM; LB; incubation time: overnight (16-24 h)
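Note: static incubation at 37 °C against the wild-type strain, values averaged over two biological replicates.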

Q: Which relative growth does the source give for `Cc1noc(C)c1NC(=O)Nc1ccc2c(c1)C(=O)N([C@@H](C)CO)C[C@@H](C)[C@@H](CN(C)C(=O)Nc1ccc(C(F)(F)F)cc1)O2` here?
A: Its relative growth is inactive: 0.937.

Q: How did the relative growth turn out when `C[C@@H]1CN([C@@H](C)CO)C(=O)c2cc(NC(=O)Nc3cccc4ccccc34)ccc2O[C@@H](C)CCCCO[C@@H]1CN(C)C(=O)Nc1ccccc1` was run?
A: Its relative growth is inactive: 1.01.

Q: `COCC(=O)N1CC[C@]2(CC1)CN([C@H](CO)c1c2c2ccc(cc2n1C)OC)C(=O)Nc1ccccc1F` was tested. Which relative growth did it give?
A: Its relative growth is inactive: 0.947.

Q: Which relative growth does the source give for `C[C@H]1CN([C@@H](C)CO)C(=O)c2cc(NC(=O)Cn3cnnn3)ccc2O[C@H]1CN(C)C(=O)Nc1ccc(F)cc1` here?
A: Its relative growth is inactive: 0.975.

Q: With `Cc1nc(CCO)cs1` as the compound, how does the relative growth read?
A: The relative growth was inactive: 1.02.

Q: How did the relative growth turn out when `C[C@@H]1CN([C@H](C)CO)C(=O)c2cc(NS(=O)(=O)c3cn(C)cn3)ccc2O[C@@H](C)CCCCO[C@H]1CN(C)C(=O)Nc1ccc(C(F)(F)F)cc1` was run?
A: The relative growth was inactive: 0.951.

Q: `CCc1cnc2c(c1OC)c(=O)[nH]c(=O)n2C` was tested. Which relative growth did it give?
A: The relative growth was inactive: 0.975.

Q: How did the relative growth turn out when `CN1CCC[C@H]1CO` was run?
A: Its relative growth is inactive: 0.919.

Q: With `C[C@@H]1CCCCO[C@@H](CN(C)S(=O)(=O)c2cccs2)[C@@H](C)CN([C@@H](C)CO)C(=O)c2cc(NC(=O)C3CCCCC3)ccc2O1` as the compound, how does the relative growth read?
A: The relative growth was inactive: 1.01.

Q: For `CC(C)(C)[S@](=O)N1Cc2cc(C(=O)N[C@H]3CCN(Cc4ccccc4)C3)nc(-c3cccc(-c4ccncc4)c3)c2[C@@H]1CCO`, which relative growth is on record?
A: Its relative growth is inactive: 1.02.

Q: How did the relative growth turn out when `Cc1ccc(NC2C(=O)NC(=O)N2N)cc1` (stereo not drawn) was run?
A: Its relative growth is inactive: 0.942.

Q: `Cc1cc(C(=O)Nc2ccc(S(=O)(=O)O)c3cc(S(=O)(=O)O)cc(S(=O)(=O)O)c23)ccc1NC(=O)c1cccc(NC(=O)Nc2cccc(C(=O)Nc3cc(C(=O)Nc4ccc(S(=O)(=O)O)c5cc(S(=O)(=O)O)cc(S(=O)(=O)O)c45)ccc3C)c2)c1` was tested. Which relative growth did it give?
A: Its relative growth is inactive: 1.01.

Q: How did the relative growth turn out when `C[C@@H]1CN([C@@H](C)CO)C(=O)c2cccc(NC(=O)c3ccncc3)c2O[C@H]1CN(C)Cc1ccncc1` was run?
A: Its relative growth is inactive: 0.984.

Q: `COc1ccc(S(=O)(=O)N[C@H]2CC[C@@H](CC(=O)N3CCC(Cc4ccccc4)CC3)O[C@@H]2CO)cc1` was tested. Which relative growth did it give?
A: Its relative growth is inactive: 1.03.

Q: For `COCC#Cc1ccc2c(c1)O[C@@H](CN(C)S(=O)(=O)c1ccc(F)cc1)[C@H](C)CN([C@@H](C)CO)S2(=O)=O`, which relative growth is on record?
A: Its relative growth is inactive: 1.02.

Q: For `CC(C)Cc1ccc(C(C)C(=O)O)cc1` (stereo not drawn), which relative growth is on record?
A: The relative growth was inactive: 1.07.

Q: For `CCSC(=O)NC1CCCCC1`, which relative growth is on record?
A: The relative growth was inactive: 0.967.

Q: `Cc1ccc(S(=O)(=O)Nc2ccc3c(c2)C(=O)N([C@H](C)CO)C[C@H](C)[C@H](CN(C)Cc2ccc4c(c2)OCO4)OCCCC[C@H](C)O3)cc1` was tested. Which relative growth did it give?
A: Its relative growth is inactive: 1.01.
